This is one part of the list. At the low end of the ranking the order means little. The protein was read in a cell extract, so binding may be indirect.

This assay has as its target T1, HNF4alpha8 (COS-7 nuclear extract) (UniProt P41235-5).
T1 sequence: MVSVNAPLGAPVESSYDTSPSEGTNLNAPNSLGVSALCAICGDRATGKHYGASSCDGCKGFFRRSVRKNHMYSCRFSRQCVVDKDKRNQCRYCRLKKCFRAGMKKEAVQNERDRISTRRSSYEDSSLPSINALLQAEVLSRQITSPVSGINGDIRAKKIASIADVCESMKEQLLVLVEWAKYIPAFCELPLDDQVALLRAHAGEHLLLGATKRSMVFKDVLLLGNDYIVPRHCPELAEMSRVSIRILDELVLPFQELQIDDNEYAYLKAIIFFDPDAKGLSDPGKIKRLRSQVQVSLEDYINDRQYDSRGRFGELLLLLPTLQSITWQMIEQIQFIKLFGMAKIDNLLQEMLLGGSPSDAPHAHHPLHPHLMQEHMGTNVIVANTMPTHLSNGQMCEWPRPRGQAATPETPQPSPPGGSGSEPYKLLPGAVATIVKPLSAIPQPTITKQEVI
The assay is described as follows: protein-binding microarray. Particulars: COS-7 nuclear extract on double-stranded Agilent 4x180k PBM; binding buffer, salt, pH and temperature not given; high values mean tight binding; double strand, one strand shown; sequences stand for … in …GCCTAGGGAGATTAGAGTATCGGTCGA
Turning to AGAACAGTCTGTGACTTGATCTTTGACTGG, the binding signal (log2 normalized intensity) is 4.27.

On to TGAAATCTAATCTCTGTAACATTCCTAGAT, for which the binding signal (log2 normalized intensity) was -1.44.

Consider CTGAGAGAGCAGGGCCCGAGGCCTTGAGCA, for which the binding signal (log2 normalized intensity) was -1.4.

For the sequence TTTCAAGGTGACCCCACGGAGCTGCCTCAC, the binding signal (log2 normalized intensity) stood at 2.75.

As for GCATTTCACAATAGGGTTCAAACTCCTATG, the binding signal (log2 normalized intensity) was determined as 2.89.

With TAATCTGACTTGACAGGTTTCTTGCTGAAG, the binding signal (log2 normalized intensity) is -1.35.

With TCTAATCTCTGTAACATTCCTAGATATCAG, the binding signal (log2 normalized intensity) is -0.796.

As to TAAGCAATCCCTTAGGCTTTTGCACTTTAC, the binding signal (log2 normalized intensity) came to 3.39.

ATCACACTACTGGCTTTTCTGGTTCTCCAG: the binding signal (log2 normalized intensity) is -1.44.

Take TTCAGGCAGGAATGCTGAACAATTGATTTA: the binding signal (log2 normalized intensity) is -0.858.

Turning to ACACTGACATCATCGCAGAAAGCTCTTTGC, the binding signal (log2 normalized intensity) was -1.25.

For the sequence TAGAATGACCCCCTGGGCTCCAATCAGGAG, the binding signal (log2 normalized intensity) amounted to 3.28.

For the sequence ATGAAAGTATCCAGCTCCTCTTCACACCAT, the binding signal (log2 normalized intensity) was -1.1.

TTAAGTGGTTCACAAACATTCCAGTGGTCC: the binding signal (log2 normalized intensity) is 1.26.

Regarding TGTGTGTGTGTCTGTAGTTTTCGTTGTCTA, the binding signal (log2 normalized intensity) is 2.21.

Consider GGCCGGGGTGGTGGTTACCGGCAGAGGCTG, for which the binding signal (log2 normalized intensity) was -0.249.

On to CATTGTGTTAAAGGAATTCAGGACTTGGTA, for which the binding signal (log2 normalized intensity) was 0.455.

On to GCTGTCAGCCACCAAAGCAGCTAGCAAATA, for which the binding signal (log2 normalized intensity) is -1.35.

For the sequence GTTATCTAATGGAGAGGATGGGGACAAAGG, the binding signal (log2 normalized intensity) was found to be 2.55.

In the case of TAGTAGCCCTTTGTATCTTTTAAGATACAC, the binding signal (log2 normalized intensity) stood at 1.04.

Regarding AGGGGTCACCTCGCTCCCCTCCTGTCAGTT, the binding signal (log2 normalized intensity) turned out to be 1.87.

As for TCAGCTGGGCTCGGCGCTCCGCTTACTCGG, the binding signal (log2 normalized intensity) was -1.25.

Regarding AAGACAGGGGCTATTTCTGACCTTTGCACC, the binding signal (log2 normalized intensity) is 10.2.

Take GACCCCCTACATAGAGAGCAGTCTTGAGCG: the binding signal (log2 normalized intensity) was found to be 1.99.

In the case of CAAGTCCAGCGAGGTTATTTCACCCCAGCA, the binding signal (log2 normalized intensity) stood at 1.89.

Take TACATGGCCTGCATGACTACATTCTTTGAA: the binding signal (log2 normalized intensity) was -0.459.

On to AACTCTATCATACTCAGCTAATCTAGAGAC, for which the binding signal (log2 normalized intensity) is -1.33.

For TGTATTTCGGGGCACTGCTCCCTGCCCCTA, the binding signal (log2 normalized intensity) came out at 3.09.

For the sequence CAAGGTGGTGAAGATGTCCTGTAGAAAGCG, the binding signal (log2 normalized intensity) was -1.28.

Regarding GTTTTGTAAACTCCCTTTGATGCGGTCAGA, the binding signal (log2 normalized intensity) was 1.37.

As for TCCTTATCCTCATTGTGTGCAGACCTTCTC, the binding signal (log2 normalized intensity) is 1.94.

GGCTGATAAGACACATTCCATGCTTATCAG: the binding signal (log2 normalized intensity) is -1.16.

With ACTGAGATGGGAGCAGTGCTCAGATAAGAT, the binding signal (log2 normalized intensity) was -1.27.

As for CGCTGGACTCTGCTCCTAAGGCAGGATTGG, the binding signal (log2 normalized intensity) was 2.01.

As for CCTTCCGACCACTGGCTGAACAGGGTCAGT, the binding signal (log2 normalized intensity) was found to be 2.71.

Regarding AGTTAACTCACACACCCCAAAAGGTCAATC, the binding signal (log2 normalized intensity) was 4.56.

As to ATATGAACTTTGGAAATGCAAACACCTACA, the binding signal (log2 normalized intensity) is -1.08.

As for TGGCACCTGAAGCTGCCCTTTGCACATGCC, the binding signal (log2 normalized intensity) was 5.02.

In the case of CACTTACAAGTGTACAAAGGTCACTTCTGT, the binding signal (log2 normalized intensity) is 7.03.

Consider TGAGGTCGGGGCCTGGTCTGCACTCCAGGA, for which the binding signal (log2 normalized intensity) was -1.38.

As for AAAGGACATTGTCCATCACCTGGCTCTGAA, the binding signal (log2 normalized intensity) is -1.18.

Take GATGGAGATGGCCTGGAGGTACCTAGGGGA: the binding signal (log2 normalized intensity) is -1.51.

For the sequence TCCTAGGGTTAAAGTCTACAACCAGAACTT, the binding signal (log2 normalized intensity) turned out to be 3.36.

On to CTTTGCTCTCTGAAATGAAGGTCAGCAAAT, for which the binding signal (log2 normalized intensity) is 1.05.

On to CCTGTCAGTTTATTTACTGTCCTCAAACTG, for which the binding signal (log2 normalized intensity) was determined as 0.601.

Consider GCCTGGGGTAAAACCAAACTGCAGCTGCTG, for which the binding signal (log2 normalized intensity) was -1.14.

As to AAGTTCAGTGAGATTAGGAAGTGTGCACAA, the binding signal (log2 normalized intensity) was 0.32.

In the case of AGCCCCTTTGTCCATTATCTCACTTATTTG, the binding signal (log2 normalized intensity) worked out at 1.36.

Take TAAACCAGCCTAACAGGATTTTTGCTGAAG: the binding signal (log2 normalized intensity) was -1.28.

For the sequence AGAAGCCTCTGGACAAGGGAAGCGTCAATG, the binding signal (log2 normalized intensity) is -1.37.

GAACCAAGATCTGTGAAAGAAAAGTACTTT: the binding signal (log2 normalized intensity) is 1.75.

As to GGCAAAGGGCATGGGCAGCTTTGAAGACTC, the binding signal (log2 normalized intensity) was -1.5.

GGGCACCGCCTCCACACCCCAGCCTGCCCT: the binding signal (log2 normalized intensity) came out at 2.63.

In the case of TTACTTTTGTACACACAGCACTGCAAACAG, the binding signal (log2 normalized intensity) was -1.37.

Consider ATCAATCAATTTACCTCTGCTCCCCCTGCC, for which the binding signal (log2 normalized intensity) worked out at 4.41.

Consider AACTGAGGAGGACATACTCCTACCACCAAA, for which the binding signal (log2 normalized intensity) was -1.43.

Turning to GTGTCCCTCTTATACTCTCTCTCTCTCGTT, the binding signal (log2 normalized intensity) amounted to 0.592.

With CAAAGTACAGTAATTTCACTGATATGGTGA, the binding signal (log2 normalized intensity) came out at 1.48.

For the sequence TCCTTGACCCTGAAAACAGGGCAAGGAACG, the binding signal (log2 normalized intensity) turned out to be 1.3.

GGATTGATAGACTTATCTCAGCCTGGCTAA: the binding signal (log2 normalized intensity) was -1.3.

Turning to TCTTTCTCCCAGAGGTCGATCTGATCTTAA, the binding signal (log2 normalized intensity) amounted to 2.09.

Take AATGGAGGAGTTCAGCAGCATCTAAACTCT: the binding signal (log2 normalized intensity) was -1.37.

As to CAAGGACTCTAAAGGGAATAACCTTTGAGC, the binding signal (log2 normalized intensity) stood at 6.76.

As to TATGACAACAAAGCATTATCTACACAGTAA, the binding signal (log2 normalized intensity) was -1.32.

On to AGTTCCCATTTGCGCTGGTTTTATGGTGTC, for which the binding signal (log2 normalized intensity) is 1.94.

With ATGTGCCAGACACTGCTCTAGGCATTGGAG, the binding signal (log2 normalized intensity) is -1.35.

Turning to GCTTGGGAGCAGTCCTTGGGGAAGGGGTAC, the binding signal (log2 normalized intensity) was -0.338.

As for CAAGGACTTTGAAGGCCCCAATTGCCAAGG, the binding signal (log2 normalized intensity) is -1.3.

In the case of TGAGTGTTTGACCTTTCACCCAGAAAAGGC, the binding signal (log2 normalized intensity) turned out to be 6.35.

Consider GTTGCACCTCTTATCAAGCGTGCACCCCAG, for which the binding signal (log2 normalized intensity) stood at 2.15.

Turning to TTGTGTAAGTGTGGGTTTAAGTAAGCCCCC, the binding signal (log2 normalized intensity) was found to be 4.14.

For TGGTTTGCCTCTCTTAGGTGACAGCCTTTT, the binding signal (log2 normalized intensity) is 1.22.
